Laboratory results reported in PMC4336329 (PLoS ONE, 2015).
Screen size: about 310,000 compounds; about 2,200 (0.71%) showed an effect of 50% or more. The effect is printed as a negative number. Some of the results follow.

Target: human ether-à-go-go-related gene (hERG) potassium channel (human, UniProt Q12809)
Test: primary screen, population patch clamp on CHO cells stably expressing hERG

Chain of human ether-à-go-go-related gene (hERG) potassium channel (Q12809 whole entry, looked up): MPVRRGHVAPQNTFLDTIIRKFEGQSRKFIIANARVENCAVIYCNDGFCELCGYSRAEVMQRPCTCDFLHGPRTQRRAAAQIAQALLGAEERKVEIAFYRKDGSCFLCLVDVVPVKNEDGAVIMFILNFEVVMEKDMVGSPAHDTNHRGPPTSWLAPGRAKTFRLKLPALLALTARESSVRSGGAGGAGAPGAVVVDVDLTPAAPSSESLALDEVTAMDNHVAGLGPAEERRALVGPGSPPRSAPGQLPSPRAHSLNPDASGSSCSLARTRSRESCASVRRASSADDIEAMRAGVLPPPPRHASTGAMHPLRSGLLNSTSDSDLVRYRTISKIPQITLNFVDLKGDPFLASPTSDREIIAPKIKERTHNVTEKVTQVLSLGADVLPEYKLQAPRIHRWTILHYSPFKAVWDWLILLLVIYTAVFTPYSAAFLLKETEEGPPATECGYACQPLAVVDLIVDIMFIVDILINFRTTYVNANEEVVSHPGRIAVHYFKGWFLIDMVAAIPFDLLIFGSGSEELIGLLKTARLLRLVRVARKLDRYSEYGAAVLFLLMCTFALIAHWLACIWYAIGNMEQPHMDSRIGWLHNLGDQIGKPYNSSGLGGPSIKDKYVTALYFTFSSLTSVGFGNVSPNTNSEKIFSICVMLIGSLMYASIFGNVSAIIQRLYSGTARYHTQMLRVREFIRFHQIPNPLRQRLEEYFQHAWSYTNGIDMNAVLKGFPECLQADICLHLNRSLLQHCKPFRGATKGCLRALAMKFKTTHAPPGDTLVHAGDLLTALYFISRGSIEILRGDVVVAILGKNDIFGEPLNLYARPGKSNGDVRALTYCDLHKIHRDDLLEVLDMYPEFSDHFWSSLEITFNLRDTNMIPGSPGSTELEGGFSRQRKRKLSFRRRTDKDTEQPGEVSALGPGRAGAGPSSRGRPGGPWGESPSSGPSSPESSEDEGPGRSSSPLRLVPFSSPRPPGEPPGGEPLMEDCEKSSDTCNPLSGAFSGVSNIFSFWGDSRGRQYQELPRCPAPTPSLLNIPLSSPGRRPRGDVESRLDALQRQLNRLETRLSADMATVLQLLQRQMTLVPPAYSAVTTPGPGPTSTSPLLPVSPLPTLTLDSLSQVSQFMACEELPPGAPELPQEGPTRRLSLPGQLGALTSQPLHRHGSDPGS

SMILES	hERG current change (%, negative = inhibition) at 1uM
C(=N\N1CCN(C2c3ccccc3-c3ccccc32)CC1)/c1cccnc1	7.06%
COc1ccc(-c2[nH]ncc2-c2nc(C)cs2)c(O)c1	18.3%
COc1cc(C)ccc1OCc1cc(C(=O)N2CCCCCCC2)no1	8.18%
Cc1oc(-c2ccc(Cl)cc2)nc1CS(=O)CC(=O)NCCCN1CCOCC1 (stereo not shown)	13.2%
CCCOC(=O)c1cc(-c2ccc(/C=C3/C(=O)N(C)C(=O)C(C#N)=C3C)o2)ccc1Cl	9.54%
COc1ccc(OC)c(/C=N\NC(=O)c2cc3c(ccc4ccccc43)o2)c1	2.46%
COc1ccc(N2CCN(CCCNC(=O)C(=O)c3c(C)n(C)c4ccccc34)CC2)cc1	-9.85%
Oc1ccc(-c2[nH]ncc2-c2ccc(Cl)cc2)c(O)c1	2.03%
CCOc1ccc(C(=O)N2CCN(CCc3ccccc3)CC2)cc1OCC	-77.5%
CCOc1ccc(/C=C/C(=O)NCCc2ccc(OC)c(OC)c2)cc1	7.83%
CC(=O)c1ccc(-c2nc3c4ccccc4ccn3c2C(C)=O)o1	12.9%
Cc1cc(C(=O)OCC(=O)NC2(C#N)CCCCC2)c(C)o1	9.27%
CCCN(CCC)CCNC(=O)C1CCN(Cc2nc(-c3ccc(Cl)cc3)oc2C)CC1	-17.9%
Cn1c(Cn2nnc3ccccc32)nnc1SCC(N)=O	15.9%
Cc1n[nH]c(=O)c2c(NC(=O)COC(=O)c3cccc(OC(F)F)c3)oc(C)c12	-2.63%
CCOC(=O)CCSc1nc2c(c(C(F)(F)F)c1C#N)CCC2	12.6%
Cc1c(NC(=O)CN2C(=O)NC(C)(c3ccc4c(c3)OCCO4)C2=O)c(=O)n(-c2ccccc2)n1C (stereo not shown)	19.6%
CC1CCCCC1NC(=O)CSc1nncs1 (stereo not shown)	14.5%
CCNS(=O)(=O)c1ccc(CCC(=O)Nc2ccccc2)cc1	7.45%
COC(=O)[C@@H](Cc1ccccc1)NC(=O)NCCc1ccccc1	13.7%
O=C(Nc1ccc(F)cc1)c1cccnc1N1CCOCC1	17.9%
N#Cc1c(N)c(C(=O)c2ccc(Cl)cc2)n2c1CCC2	14.2%
CS(=O)(=O)c1ccc2nc(NC(=O)c3ccco3)sc2c1	8.63%
COc1ccc(CN2C(=O)NC3(CCCC3)C2=O)cc1F	0.331%
C=CCC(=O)OCCCCCCOc1ccc(C(=O)O)cc1	-5.04%
CCn1c(SCC(=O)N2CCCCC2C)nc2c1c(=O)n(C)c(=O)n2C (stereo not shown)	11.2%
CCN(CC(=O)NCC1CCCO1)S(=O)(=O)c1ccc(Cl)cc1 (stereo not shown)	10%
CC1CN(C(=O)c2ccc(COCC(F)(F)F)o2)CC(C)O1 (stereo not shown)	14.1%

SMILES	hERG current change (%, negative = inhibition) at 1uM
Cc1oc(-c2cccc(Cl)c2)nc1CS(=O)(=O)CC(=O)NC1CC1	5.45%
CCN(CC(=O)Nc1c(F)cccc1F)C(=O)Cc1ccc(OC)c(S(=O)(=O)N2CCOCC2)c1	15.5%
O=C(O)c1ccccc1C(=O)c1cccc2ccccc12	13.6%
O=C(Cc1sc(-c2ccccc2)nc1-c1ccccc1)Nc1ccccc1	12.9%
COC(=O)c1sc2nc(-c3ccco3)ccc2c1N	3.04%
O=C(/C=C/Nc1cccc(C(F)(F)F)c1)c1ccc(Oc2ncccn2)cc1	18.9%
O=C(Nc1ccc(Cl)cn1)c1ccc(-c2ccc(Cl)c(Cl)c2)o1	11.8%
COc1ccc(S(=O)(=O)N(C)CC(=O)N2CCC(C(N)=O)CC2)cc1	9.98%
CCOc1cc(C2C(C#N)=C(N)Oc3n[nH]c(-c4ccccc4)c32)ccc1O (stereo not shown)	5.4%
Cc1cccc(OCCCn2c(CCNC(=O)C(C)C)nc3ccccc32)c1	-5.07%
CNC(=O)Nc1cccc2cccnc12	3.5%
CCC(C)N=Cc1c(NCc2ccco2)nc2c(C)cccn2c1=O (stereo not shown)	8.53%
O=[N+]([O-])c1cc(C(F)(F)F)ccc1Sc1nccn1Cc1ccccc1	3.73%
Cc1ccc(C)c(N(C(=O)Cn2nnc3ccccc32)C(C(=O)NCc2ccco2)c2ccncc2)c1 (stereo not shown)	2.36%
O=C1c2ccccc2-c2c1cccc2C(=O)N(CCO)CCO	8.69%
COC(=O)c1ccc(-c2ccc([C@H]3[C@H]4C=CC[C@@H](C)[C@@H]4C(=O)N3Cc3ccccc3)c(F)c2)cc1	17%
CC(=O)c1ccccc1OC(=O)c1ccc([N+](=O)[O-])o1	20.1%
CCn1nnnc1SCC(=O)N1CCN(c2ccccc2)CC1	-3.52%
COc1ccc(-c2cc(=O)oc3cc(OCC(=O)NCCCn4ccnc4)ccc23)cc1	-12.8%
Fc1cccc(Nc2ncnc3[nH]ncc23)c1	14.9%
COCCCNC(=O)Nc1ccc(F)cc1F	10%
CC(=O)O[C@@]12CO[C@@H]1C[C@@H](O)[C@@]1(C)C(=O)[C@H](O)C3=C(C)[C@@H](OC(=O)[C@H](O)[C@@H](NC(=O)c4ccccc4)c4ccccc4)C[C@@](O)([C@@H](OC(=O)c4ccccc4)C12)C3(C)C (stereo partly shown)	13.6%
CC(C)c1ccc(NC(=O)COc2nncc3ccccc23)cc1	10.2%
Cc1ccc(NC(=O)NCC2CCN(Cc3cc(C)ccc3Cl)CC2)c(C)c1	-27.3%
COc1ccc(S(=O)(=O)N(CC(=O)NCc2ccco2)c2ccc(F)cc2)cc1	6.13%
CC(=O)c1ccc(NC(=O)Oc2ccccc2)cc1	0.966%
Cc1ccc(SCc2cc(=O)n3[nH]c(C)nc3n2)cc1	11.3%
